# Experimental data as given in the supplement of paper PMC3334620.
# The full ranking holds about 33,000 sequences; the median of “E-score (-0.5 to 0.5)” is about -0.021, and the highest 2% start at about 0.32. The list shows a part of the results.
# Molecular target: T1, Zap1 (UniProt P47043)
# T1 sequence: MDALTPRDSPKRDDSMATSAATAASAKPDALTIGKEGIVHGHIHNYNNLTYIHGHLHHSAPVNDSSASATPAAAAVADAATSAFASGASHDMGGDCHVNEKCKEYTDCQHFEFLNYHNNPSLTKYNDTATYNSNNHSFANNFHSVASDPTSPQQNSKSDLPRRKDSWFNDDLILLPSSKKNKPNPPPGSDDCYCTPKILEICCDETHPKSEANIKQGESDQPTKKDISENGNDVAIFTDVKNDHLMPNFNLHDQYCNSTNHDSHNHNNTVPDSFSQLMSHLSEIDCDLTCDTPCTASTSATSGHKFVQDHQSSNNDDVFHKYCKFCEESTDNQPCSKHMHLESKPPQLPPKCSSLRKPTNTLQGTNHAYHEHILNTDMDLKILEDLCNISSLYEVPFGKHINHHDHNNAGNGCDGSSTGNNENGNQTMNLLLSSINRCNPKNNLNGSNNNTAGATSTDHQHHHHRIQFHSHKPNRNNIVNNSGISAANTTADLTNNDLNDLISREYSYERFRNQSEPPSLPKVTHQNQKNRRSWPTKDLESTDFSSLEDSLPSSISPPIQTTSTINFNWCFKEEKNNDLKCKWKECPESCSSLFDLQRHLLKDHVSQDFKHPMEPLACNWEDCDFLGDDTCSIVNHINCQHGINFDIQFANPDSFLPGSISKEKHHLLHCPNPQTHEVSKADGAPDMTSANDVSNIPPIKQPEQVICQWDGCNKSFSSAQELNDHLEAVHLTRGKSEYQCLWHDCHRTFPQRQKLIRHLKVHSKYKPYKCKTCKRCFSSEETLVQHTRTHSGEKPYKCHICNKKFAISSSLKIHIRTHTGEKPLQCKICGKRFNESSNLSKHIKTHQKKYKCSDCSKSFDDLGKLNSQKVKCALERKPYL
# Test: PBM E-score (8-mer binding enrichment) (E-score (-0.5 to 0.5)); higher = stronger / more preferred TF binding; most listed sequences are background and not binding sites
# Settings: protein concentration: 200 nM; construct: GST-full length
# Experimental: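 Universal 'all 10-mer' protein binding microarrays (Agilent AMADID 015681) probed with GST-tagged S. cerevisiae TFs (full-length or DBD) made by in vitro transcription/translation (PURExpress), about 100-200 nM. Bound TF was detected with fluorescent anti-GST. Each ungapped 8-mer (which stands for itself and its reverse complement) is scored by the PBM enrichment score (E-score), a modified Wilcoxon-Mann-Whitney statistic from -0.5 to +0.5, computed with the Universal PBM Analysis Suite. Scale: above 0.35 generally sequence-specific binding.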
row,Sequence,PBM E-score
1,CAGGCGCA,-0.226
2,CTTATTGC,0.0266
3,AAGTATGT,-0.00136
4,TAGGCGGA,-0.137
5,TTGCGCAA,0.0715
6,AGCAGTGC,-0.26
7,CAACCTTG,0.332
8,CGGTGGGC,-0.00164
9,AATTTACT,0.14
10,ACATCGAC,-0.182
11,TAGGGTCA,0.408
12,CCCGGACG,-0.26
13,ATCACCAA,0.0362
14,AGACCGCC,0.0208
15,CCCAGAGG,0.202
16,CGCATTTA,0.0487
17,ATCCCACC,0.156
18,TTCCGCAA,0.192
19,AGGCGCAA,-0.124
20,ATCCGAAG,-0.0607
21,ATATCCCG,0.132
22,CATAGTAC,-0.0152

row,Sequence,PBM E-score
1,GAACCCTC,0.18
2,GGTTCCGA,0.265
3,CTTGTAGA,-0.118
4,CGTCTATC,-0.231
5,CAGTTTCA,-0.12
6,CGAACTAG,0.0259
7,GTACCCAC,0.212
8,GTTTGCTA,0.0208
9,CCACTATC,-0.0566
10,GTAACATA,0.209
11,GTATGACA,-0.0285
12,ATGAGAGC,-0.104
13,CTTCCGCC,-0.108
14,ATCATTGA,0.0965
15,TTAACGAA,0.22
16,AGGCACGC,-0.236
17,GAACTTAA,0.0397
18,AGCCTGTA,-0.0884
19,GCGTAAGA,-0.0758
20,AGACGTGC,-0.204
21,AACGGAGG,-0.279
22,AAAATCCA,0.0613

row,Sequence,PBM E-score
1,AATAGGCG,-0.0939
2,GACTACCC,0.301
3,CGCCTACC,-0.151
4,AACTCTGT,-0.0857
5,ACCATCAC,0.153
6,GCGAACTA,-0.057
7,AGCATTGC,-0.145
8,ACGTTTCA,-0.0937
9,GGGTACAA,0.345
10,CGGCAAAG,-0.158
11,CGACCGGC,0.00958
12,GGTATCCA,0.253
13,AAACATCT,-0.0428
14,ACATCCTG,0.00886
15,AACTAGCA,-0.00179
16,GTTGGTCA,0.24
17,AGTAATCG,-0.0726
18,AGACTGCT,-0.0613
19,AGATCTGC,-0.105
20,GCGTTCCC,-0.0434
21,GTCCTACA,0.104
22,GGACGTTA,-0.0322

row,Sequence,PBM E-score
1,ACTTGATC,0.0451
2,AGCATAAG,-0.0471
3,ATCACATC,-0.0715
4,AATCTGTA,-0.0544
5,CAACGGGG,0.105
6,CCGTCAAG,0.159
7,AACAATAA,0.258
8,ATCACCAT,0.196
9,CCCAAGGA,0.00233
10,CTCGCCAC,-0.227
11,CATTTAAC,0.248
12,GTATCGAC,0.115
13,ATTCACCG,0.00237
14,ACCGAATG,-0.0436
15,AACCATGT,0.239
16,GCAACACA,-0.154
17,AAACGCCG,-0.159
18,AGTCTAAC,-0.0889
19,ACCTCTGA,0.241
20,GAGAGGGC,-0.355
